T1: UNK ZnF1-3 (human, UniProt Q9C0B0 31-174)
T1 sequence: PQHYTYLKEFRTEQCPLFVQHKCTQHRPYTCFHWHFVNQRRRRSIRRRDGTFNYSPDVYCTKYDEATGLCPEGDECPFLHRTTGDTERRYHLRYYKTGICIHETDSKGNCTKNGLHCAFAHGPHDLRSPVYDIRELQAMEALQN

B1: 105956041_105956161_390_3pUTR_ENSG00000135974_ENST00000258457|human|control|control (ssRNA)
RNA: GGGAGUUCUACAGUCCGACGAUCAUCAUUUUCCCCCAUCUAUUCUUCGGCAAAUCCCUCUGAGGCAAUGGUAUUGCAUGUUGGACAUAAAGGUCAGUAAGACUGUCUUUGUUUACUCUUACAUCAGUUUCAACAGCUAUGUUCCAACAGAGGAUUGAGCAUCA
B2: chr5:134235298:134235299:+_ENSG00000113621_ENST00000507024|hu_hu|FALSE|FALSE (ssRNA)
RNA: GGGAGUUCUACAGUCCGACGAUCUGUCCUGGAAUUAGCCACCGAAUACUCUCAGUUCGAAUGGUAGCAUACAUAAUAAAACUAAUUAAAAAGAAUAAGGAAAAUACAAGCAACCAGUCCACACUUUUUAUCAAAGUGCUGGGACAACAGAGGAUUGAGCAUCA
B3: chr1:163115795:163115796:-_ENSG00000143248_ENST00000313961|hu_hu|FALSE|FALSE (ssRNA)
RNA: GGGAGUUCUACAGUCCGACGAUCGAGUUAAUAUCCUCAUCUCGAUUACCCUCAUACAUGGCUUAGUUUGAUUCUGUUACUAAAUUCUGUGAAUCAUUAUUUAAUCAAAUCUACUAAAGAUUAGAAAAAAUUCUAGCAAGACUUCAACAGAGGAUUGAGCAUCA
B4: chr11:70698419:70698420:+_ENSMUSG00000020817_ENSMUST00000076270|mus_mus|motif|central (ssRNA)
RNA: GGGAGUUCUACAGUCCGACGAUCUUUCAUUAUAGCCUGAAGUGAAGCAACUUCUUCUCUCCAUUGCCUUUUAACUUCAUCGGUAGCUUCUUGCUUAGUAUUCUCAGAGACUGUGGCAAUUGCCUUAAUGUUCUCCAUCUCUGCCAACAGAGGAUUGAGCAUCA
B5: chr2:75765252:75765253:+_ENSMUSG00000042410_ENSMUST00000047232|mus_mus|FALSE|FALSE (ssRNA)
RNA: GGGAGUUCUACAGUCCGACGAUCAUUUAAAGCAAUUGUUCCACGUAUUUCAAUAUCCAGUUUUGAAUGUAAAAAUGUCUGCUAAAUGUAAUUAACGUUCUCCUUUUUAUUUAAGAAAUAGGAUAUUUCAAACUUGUGAUUAUGCAACAGAGGAUUGAGCAUCA
B6: chr2:46850943:46850944:+_ENSG00000119878_ENST00000238892|hu_hu|motif|central (ssRNA)
RNA: GGGAGUUCUACAGUCCGACGAUCGUAGGCACAGCCCUGGCAGUAAUGAGAACCUGGUUGGUGCACAGAACUUUUACAAAUUCGGCAAGUGGAGAACUUAUUCUUUCCAUAUGGAUCAAAUCUUGCUUUUUUUGAAGUCAAAGCCAACAGAGGAUUGAGCAUCA

Some of the results follow.

In this test the target is T1, UNK ZnF1-3. The test can be described thus: nsRBNS (natural sequence RNA bind-n-seq); RBNS binding buffer (assumed for nsRBNS): 25 mM Tris pH 7.5, 150 mM KCl, 3 mM MgCl2, 0.01% Triton X-100, 500 ug/ml BSA, 20 U/ml SUPERase-In, 4 C; UNK is unkempt and MSI1 is Musashi-1; names of the RNAs are library labels; protein concentration not given here; high values mean tight binding.
B1 came in with a binding signal of 0.664 enrichment R.

For the molecule B2, the binding signal stood at 3.17 enrichment R.

In turn, B3 registered a binding signal of 0.817 enrichment R.

Turning to B4, the binding signal amounted to 0.447 enrichment R.

Consider B5, for which the binding signal was 0.444 enrichment R.

Molecule B6 had a binding signal of 1.2 enrichment R.
